In PubChem BioAssay AID504339 (National Center for Advancing Translational Sciences (NCATS), 2011):
Hit rate of the full screen: of about 390,000 compounds, about 17,000 (4.4%) were called active. Inconclusive results, whose numbers are uncertain, are shown with a selection of clear calls. The call rests on the fitted dose curve; in most records, active means well fitted inhibition curve with a large enough effect; inconclusive means small, poorly fitted or top-dose-only effect; inactive means no such curve, though single readings can be large or run the other way. Potencies beside an inconclusive call are fits to weak or partial responses and may not hold up.

Each compound was assayed against Lysine-specific demethylase 4A (Homo sapiens) (UniProt O75164) (assay: qHTS Assay for Inhibitors of JMJD2A-Tudor Domain). Details: AlphaScreen JMJD2A-Tudor / H3K4me3 peptide binding; series mostly up to 114 µM.
Chain of UniProt O75164 (O75164 whole entry, looked up, the tested form may be a part): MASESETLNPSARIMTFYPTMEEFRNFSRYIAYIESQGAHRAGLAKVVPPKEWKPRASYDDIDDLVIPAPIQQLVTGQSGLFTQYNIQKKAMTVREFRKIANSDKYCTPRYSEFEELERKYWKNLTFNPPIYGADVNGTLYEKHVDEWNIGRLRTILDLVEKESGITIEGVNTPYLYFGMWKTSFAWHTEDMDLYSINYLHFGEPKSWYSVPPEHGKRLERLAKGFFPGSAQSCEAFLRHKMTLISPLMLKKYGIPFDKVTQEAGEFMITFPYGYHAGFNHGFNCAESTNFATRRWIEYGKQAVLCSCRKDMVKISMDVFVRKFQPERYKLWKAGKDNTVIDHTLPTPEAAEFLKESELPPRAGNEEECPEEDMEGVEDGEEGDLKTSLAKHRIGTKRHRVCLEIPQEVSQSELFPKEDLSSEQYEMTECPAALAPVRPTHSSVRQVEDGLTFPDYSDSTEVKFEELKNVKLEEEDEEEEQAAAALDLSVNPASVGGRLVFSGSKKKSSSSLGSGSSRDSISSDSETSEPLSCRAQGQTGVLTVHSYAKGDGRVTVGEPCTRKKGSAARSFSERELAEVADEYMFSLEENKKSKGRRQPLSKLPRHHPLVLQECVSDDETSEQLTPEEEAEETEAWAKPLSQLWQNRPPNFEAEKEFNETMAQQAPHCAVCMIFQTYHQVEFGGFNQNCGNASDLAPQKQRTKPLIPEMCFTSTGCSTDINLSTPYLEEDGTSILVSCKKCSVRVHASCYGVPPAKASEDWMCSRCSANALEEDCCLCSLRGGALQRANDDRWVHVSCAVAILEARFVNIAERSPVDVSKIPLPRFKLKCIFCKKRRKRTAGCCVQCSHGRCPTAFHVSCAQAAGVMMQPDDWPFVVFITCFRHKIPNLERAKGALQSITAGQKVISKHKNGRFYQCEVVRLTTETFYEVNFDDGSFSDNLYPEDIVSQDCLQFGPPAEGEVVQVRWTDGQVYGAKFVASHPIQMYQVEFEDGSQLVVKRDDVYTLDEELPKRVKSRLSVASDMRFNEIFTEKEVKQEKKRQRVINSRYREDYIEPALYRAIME
Further: nearly all actives have a fitted effect of over 50% in size.
Potency means the concentration at half of the fitted maximal effect; tags describe the fitted curve by direction and shape.

Structure (SMILES) | Potency
Cc1ccc(S(=O)(=O)NC2=C(N3CCN(Cc4ccccc4)CC3)C(=O)c3ccccc3C2=O)cc1 | active: 7.08 µM
COCc1cc(C)n(CC(=O)NC(C)c2ccccc2)c(=O)c1C#N (stereo not given) | inconclusive: 39.8 µM [inhibitor, single point]
O=C(NCCSc1ccccc1)c1ccccc1 | inactive
COc1ccc(NC(=O)CSc2cc(-c3ccccc3)nc(C)n2)cc1 | inactive
N#Cc1c(-c2ccccc2)[nH]c(=S)[nH]c1=O | inactive
CN(C)c1ccc(CNC(=O)c2cc(S(=O)(=O)N3CCCC3)cn2C)cc1 | inconclusive: 50.1 µM [inhibitor, full curve]
CN(C)/C=C/C(=O)c1ncc(C(F)(F)F)cc1Cl | inactive
O=C(CCCN1C(=O)/C(=C/c2ccccc2)SC1=S)NCCCn1ccnc1 | inconclusive: 50.1 µM [inhibitor, partial curve]
COc1cccc(N2CCN(C(=O)c3cnn(-c4ccc(C)cc4C)c3C3CCN(C(=O)OC(C)(C)C)CC3)CC2)c1 | inconclusive: 35.5 µM [inhibitor, partial curve]
CC(=C/c1ccccc1)/C=N/n1c(-c2ccncc2)n[nH]c1=S | active: 10 µM
O=C(O)c1cnn(-c2nc(-c3ccc(Cl)c(Cl)c3)cs2)c1C(F)(F)F | inactive
O=C1c2cccc3cccc(c23)C(=O)N1CCN1CCN(CC(O)COCc2ccc(Cl)cc2)CC1 (stereo not given) | inconclusive: 63.1 µM [inhibitor, single point]
COc1ccc(Br)cc1CNc1ccc(O)cc1 | inconclusive: 56.2 µM [inhibitor, partial curve]
COc1cccc(-c2[nH]nc3c2C(c2ccoc2)C(C#N)=C(N)O3)c1 (stereo not given) | inconclusive: 50.1 µM [inhibitor, partial curve]
CCOc1cccc(CN2CCC(n3nccc3NC(=O)CCCc3ccccc3)CC2)c1 | inconclusive: 56.2 µM [inhibitor, partial curve, poor fit]
Cc1ccc(C)c(N2CCN(C3=C(c4ccccc4)C(=O)c4ccccc43)CC2)c1 | active: 2.51 µM
O=C(COc1ccc([N+](=O)[O-])cc1)N(C1CCCCC1)C1CCS(=O)(=O)C1 (stereo not given) | inconclusive: 31.6 µM [inhibitor, partial curve]
COc1cccc(C(=O)CC(=O)C(=O)Nc2cc(OC)ccc2OC)c1 | inconclusive: 63.1 µM [inhibitor, partial curve, poor fit]
O=C(CSc1nc2ccccc2s1)NCc1cc([N+](=O)[O-])ccc1O | inactive
CCOC(=O)C1CCN(c2ncnc3c2c(-c2ccccc2)cn3-c2ccccc2)CC1 | inconclusive: 39.8 µM [inhibitor, partial curve]
